Numbering of substitutions follows the chain as printed; changes in the protein carry UniProt numbers. The list shows a part of the results.
B1: CAAGGCA (DNA:RNA)
RNA: GGGAGACCGGAAUUCAGAUUGUCCCAAGGCAUUAAAUCCCGUCGUAGCCACCA
DNA 1: CAATCTGAATTCCGGTCTCCC
DNA 2: TGGTGGCTACGACGGGATT
B2: UAUUUAA (DNA:RNA)
RNA: B1 RNA with C25U, A27U, G28U, G29U, C30A
DNA 1: CAATCTGAATTCCGGTCTCCC
DNA 2: TGGTGGCTACGACGGGATT
B3: AAGCGGC (DNA:RNA)
RNA: B1 RNA with C25A, A27G, G28C, C30G, A31C
DNA 1: CAATCTGAATTCCGGTCTCCC
DNA 2: TGGTGGCTACGACGGGATT
B4: UUUAUUC (DNA:RNA)
RNA: GGGAGACCGGAAUUCAGAUUGUCCUUUAUUCUUAAAUCCCGUCGUAGCCACCA
DNA 1: CAATCTGAATTCCGGTCTCCC
DNA 2: TGGTGGCTACGACGGGATT
B5: ACUUGGC (DNA:RNA)
RNA: B4 RNA with U25A, U26C, A28U, U29G, U30G
DNA 1: CAATCTGAATTCCGGTCTCCC
DNA 2: TGGTGGCTACGACGGGATT
B6: CCUCGCC (DNA:RNA)
RNA: B1 RNA with A26C, A27U, G28C, A31C
DNA 1: CAATCTGAATTCCGGTCTCCC
DNA 2: TGGTGGCTACGACGGGATT
B7: CGCCGAG (DNA:RNA)
RNA: B1 RNA with A26G, A27C, G28C, C30A, A31G
DNA 1: CAATCTGAATTCCGGTCTCCC
DNA 2: TGGTGGCTACGACGGGATT
B8: CGCUGGU (DNA:RNA)
RNA: B1 RNA with A26G, A27C, G28U, C30G, A31U
DNA 1: CAATCTGAATTCCGGTCTCCC
DNA 2: TGGTGGCTACGACGGGATT
B9: GACCGGA (DNA:RNA)
RNA: B1 RNA with C25G, A27C, G28C, C30G
DNA 1: CAATCTGAATTCCGGTCTCCC
DNA 2: TGGTGGCTACGACGGGATT
B10: UCAUCAC (DNA:RNA)
RNA: B4 RNA with U26C, U27A, A28U, U29C, U30A
DNA 1: CAATCTGAATTCCGGTCTCCC
DNA 2: TGGTGGCTACGACGGGATT
B11: ACCGACC (DNA:RNA)
RNA: B1 RNA with C25A, A26C, A27C, G29A, A31C
DNA 1: CAATCTGAATTCCGGTCTCCC
DNA 2: TGGTGGCTACGACGGGATT
B12: UGUUCAC (DNA:RNA)
RNA: B4 RNA with U26G, A28U, U29C, U30A
DNA 1: CAATCTGAATTCCGGTCTCCC
DNA 2: TGGTGGCTACGACGGGATT
B13: GAAUCAA (DNA:RNA)
RNA: B1 RNA with C25G, G28U, G29C, C30A
DNA 1: CAATCTGAATTCCGGTCTCCC
DNA 2: TGGTGGCTACGACGGGATT
B14: CCUUUAG (DNA:RNA)
RNA: B4 RNA with U25C, U26C, A28U, U30A, C31G
DNA 1: CAATCTGAATTCCGGTCTCCC
DNA 2: TGGTGGCTACGACGGGATT
B15: CGCUGCA (DNA:RNA)
RNA: B1 RNA with A26G, A27C, G28U
DNA 1: CAATCTGAATTCCGGTCTCCC
DNA 2: TGGTGGCTACGACGGGATT
B16: UAAUGCC (DNA:RNA)
RNA: B1 RNA with C25U, G28U, A31C
DNA 1: CAATCTGAATTCCGGTCTCCC
DNA 2: TGGTGGCTACGACGGGATT
B17: UACACUG (DNA:RNA)
RNA: B4 RNA with U26A, U27C, U29C, C31G
DNA 1: CAATCTGAATTCCGGTCTCCC
DNA 2: TGGTGGCTACGACGGGATT
B18: AAUUACA (DNA:RNA)
RNA: B1 RNA with C25A, A27U, G28U, G29A
DNA 1: CAATCTGAATTCCGGTCTCCC
DNA 2: TGGTGGCTACGACGGGATT
B19: AUGUCCA (DNA:RNA)
RNA: B1 RNA with C25A, A26U, A27G, G28U, G29C
DNA 1: CAATCTGAATTCCGGTCTCCC
DNA 2: TGGTGGCTACGACGGGATT
B20: GGUUCCG (DNA:RNA)
RNA: B1 RNA with C25G, A26G, A27U, G28U, G29C, A31G
DNA 1: CAATCTGAATTCCGGTCTCCC
DNA 2: TGGTGGCTACGACGGGATT

What follows are binders tested against T1, RBFOX1 RRM RbFoxmut (Fox-RRM*) (Homo sapiens, UniProt Q9NWB1 109-208, R118D;E147R;N151S;E152T) (assay: EMSA; HiTS-Eq, 1 nM pool, 10 min; buffer printed only for the single-RNA assays: 10 mM Tris pH 7.5, 150 mM NaCl, 3.4 mM EDTA, 0.001% NP-40, 30 C). Details: tags: His6 N-terminal (pET28a); label: 5' 32P.
T1 sequence: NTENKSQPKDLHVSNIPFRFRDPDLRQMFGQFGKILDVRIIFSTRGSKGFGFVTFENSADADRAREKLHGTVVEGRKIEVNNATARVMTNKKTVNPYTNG
Procedure, shortened: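 Purified RbFox RRM, wild type or mutant, was incubated for 10 min in 50 µL with 1 nM of a 5′-radiolabelled RNA pool carrying 7 randomized nucleotides, whose flanks were annealed to DNA oligonucleotides, over a series of increasing protein concentrations. Unbound RNA was resolved on 8% native PAGE, cut out, reverse-transcribed, barcoded by PCR and sequenced on an Illumina HiSeq 2500. Relative association constants were derived from changes in read counts for each RNA species versus the control reaction and normalised to the cognate motif.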
In the case of B1, the binding signal is reported as 0.106 KA relative to UGCAUGU. For B2, the binding signal was 0.0892 KA relative to UGCAUGU. In the case of B3, the binding signal is reported as 0.104 KA relative to UGCAUGU. B4 was tested, and the binding signal was 0.0919 KA relative to UGCAUGU. With B5 the binding signal was 0.154 KA relative to UGCAUGU. In the case of B6, the binding signal is reported as 0.115 KA relative to UGCAUGU. In the case of B7, the binding signal is reported as 0.114 KA relative to UGCAUGU. In the case of B8, the binding signal is reported as 0.128 KA relative to UGCAUGU. In the case of B9, the binding signal is reported as 0.0775 KA relative to UGCAUGU. For B10, the binding signal was 0.0874 KA relative to UGCAUGU. In the case of B11, the binding signal is reported as 0.0659 KA relative to UGCAUGU. In the case of B12, the binding signal is reported as 0.0944 KA relative to UGCAUGU. For B13, the binding signal was 0.259 KA relative to UGCAUGU. With B14 the binding signal was 0.139 KA relative to UGCAUGU. With B15 the binding signal was 0.236 KA relative to UGCAUGU. With B16 the binding signal was 0.164 KA relative to UGCAUGU. B17 was tested, and the binding signal was 0.0655 KA relative to UGCAUGU. B18 was tested, and the binding signal was 0.101 KA relative to UGCAUGU. In the case of B19, the binding signal is reported as 0.135 KA relative to UGCAUGU. B20 was tested, and the binding signal was 0.168 KA relative to UGCAUGU.

Source: PMC9911399, “Two distinct binding modes provide the RNA-binding protein RbFox with extraordinary sequence specificity”
